Laboratory results: PubChem BioAssay AID1745853 (National Center for Advancing Translational Sciences (NCATS), 2022)
“And” between values parts separate entries of the source, which are not always exact repeats. Equal values may be shown once. This is one part of the list. Further columns of the screen follow, without active or inactive calls.

Columns and labels:
Test in all cases: Primary Screen for Target Class Profiling of Small Molecule Inhibitors of Methyltransferases
[1] = biological target: Glycine N-methyltransferase (Homo sapiens) (UniProt Q14749); conditions: purified enzyme, MTase-Glo SAH luminescence; measured here: GNMT inhibition; at 40 µM; stronger effect = lower value
Outline: (§1)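 Each enzyme was reacted with SAM and its substrate, with compounds tested once at 40 uM; SAH formed was read by MTase-Glo luminescence.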

[2] = biological target: Guanidinoacetate N-methyltransferase (Homo sapiens) (UniProt Q14353); conditions: purified enzyme, MTase-Glo SAH luminescence; measured here: GAMT inhibition; at 40 µM; stronger effect = lower value
Outline: as §1

[3] = biological target: Histamine N-methyltransferase (Homo sapiens) (UniProt P50135); conditions: purified enzyme, MTase-Glo SAH luminescence; measured here: HNMT inhibition; at 40 µM; stronger effect = lower value
Outline: as §1

[4] = biological target: Nicotinamide N-methyltransferase (Homo sapiens) (UniProt P40261); conditions: purified enzyme, MTase-Glo SAH luminescence; measured here: NNMT inhibition; at 40 µM; stronger effect = lower value
Outline: as §1

[5] = biological target: Phenylethanolamine N-methyltransferase (Homo sapiens) (UniProt P11086); conditions: purified enzyme, MTase-Glo SAH luminescence; measured here: PNMT inhibition; at 40 µM; stronger effect = lower value
Outline: as §1
% is scaled to controls: 0 for no effect and ±100 for the full control effect.

Row | SMILES | activity change, negative = inhibition [1] | activity change, negative = inhibition [2] | activity change, negative = inhibition [3] | activity change, negative = inhibition [4] | activity change, negative = inhibition [5]
1 | COC(=O)C1=COC(O[C@@H]2O[C@H](CO)[C@@H](O)[C@H](O)[C@H]2O)/C(=C\COC(=O)c2ccc(OC3OC(CO)C(O)C(O)C3O)c(OC)c2)C1CC(=O)OCCc1ccc(O)cc1 (some centres undefined) | 1.57% | 5.9% | 10.1% | -4.6% | 3.5%
2 | CCCCN1C(=O)c2cc(C(=O)NCCc3ccc(OCC)cc3)nn2CC1(C)C(=O)NC1CCCC1 (centres undefined) | 2.61% | 1.73% | -17.4% | 1.99% | 0.194%
3 | CC(=O)N1CCc2cc(Br)c(S(=O)(=O)NCCN3CCN(c4ccccc4F)CC3)cc21 | -8.82% | -0.956% | -12% | -13.1% | -9.86%
4 | CCn1c(=O)n(CC)c2cc(S(=O)(=O)NCc3ccccc3Cl)ccc21 | 2.23% | 1.23% | 1.5% | -10.2% | -0.251%
5 | Cc1nc(C(=O)N2CC(F)(F)C[C@H]2c2nnc(C3CC3)o2)co1 | 0.656% | -0.98% | 1.54% | 3.22% | 0.354%
6 | CCCn1c(=O)c2ccc(Cl)cc2n2c(=O)n(Cc3ccccc3)nc12 | 6.21% | 0.084% | 12.6% | 6.34% | 5.81%
7 | CCn1nc(-c2cccc(-c3ccnn3C)c2)nc1N(C)C | -4.47% | -6.38% | -6.56% | -9.74% | -9.11%
8 | Cc1nc(C)c(C(=O)N2CCCCCCNC(=O)CC2)s1 | 1.43% | 1.99% | 0.883% | 4.71% | 1.17%
9 | Cc1ccc(NS(=O)(=O)c2cc3c(cc2C)n(C)c(=O)n3C)c(Cl)c1 | 4.34% | 0% | 3.7% | -2.92% | 4.07%
10 | CN1CC2(CCN(Cc3ccc(C#N)cc3)CC2)CC(c2ccccc2)C1=O (centres undefined) | -16.8% | -8.53% | -4% | -6.84% | -9.42%
11 | CN(Cc1ccc(N2CCNC2=O)cc1)CC1CCCN(CCc2ccc(F)cc2)C1 (centres undefined) | -2.51% | -1.85% | -14.8% | -4.83% | -1.68%
12 | O=C(CC1CCCC1)N1CCC(c2noc(-c3cnccn3)n2)C1 (centres undefined) | 0.289% | -1.78% | 1.85% | -9.65% | -3.26%
13 | CCOCCCNC(=O)C1(C)Cn2c(ccc2-c2ccco2)C(=O)N1c1ccc(OC)cc1 (centres undefined) | -4.34% | 4.69% | -0.947% | -1.22% | -1.55%
14 | CC(C)S(=O)(=O)c1ncc(CN(C)Cc2cnn(C)c2)n1CCc1ccccc1 | -1.44% | -0.531% | 0.124% | 0.994% | 0.354%
15 | CC(C)Cn1c(=O)c2ccccc2n2c(SCc3ccc(F)cc3)nnc12 | 0.497% | 4.76% | 9.11% | -7.67% | 9.63%
16 | Cn1c(=O)c2[nH]c(-c3ccc(S(=O)(=O)O)cc3)nc2n(C)c1=O | -53.8% | 7.78% | 0.456% | -6.66% | 7.36%
17 | COc1cccc([C@H]2Nc3ccc(S(=O)(=O)Nc4ccc(C)c(C)c4)cc3[C@H]3C=CC[C@H]32)c1OC | -14.5% | -1.12% | -13.6% | -17.3% | -18.2%
18 | CCCN1C(=O)c2c(C(=O)Nc3cccc(C)c3C)ncn2CC1(C)C(=O)NC1CCCC1 (centres undefined) | -0.82% | 0% | 5.3% | 6.49% | 9.08%
19 | CNC(=O)c1cc(C2CC2)nc2c1c(C1CCN(C(=O)C3CCCC3)C1)nn2C (centres undefined) | -2.55% | 0.624% | 2.21% | -6.52% | -0.72%

Row | SMILES | activity change, negative = inhibition [1] | activity change, negative = inhibition [2] | activity change, negative = inhibition [3] | activity change, negative = inhibition [4] | activity change, negative = inhibition [5]
20 | COc1ccccc1CNC(=O)C1(C)Cn2nc(-c3ccccc3)cc2C(=O)N1Cc1ccc(OC)c(OC)c1 (centres undefined) | 5.73% | 0.648% | 9.24% | -19.4% | 3.5%
21 | Cn1c(=O)n(C)c2cc(S(=O)(=O)N3CCCc4ccccc43)ccc21 | 4.63% | 0% | 7.29% | -6.62% | 1.38%
22 | COc1ccc(C(=O)Cn2nc3n(C(C)C)c(=O)c4ccc(C(=O)NC5CCCC5)cc4n3c2=O)cc1 | -5.14% | -3.02% | 3.26% | -9.19% | -6.46%
23 | CC(C)NC(=O)C1CCc2nnc(C(C)(C)C)n21 (centres undefined) | 0.723% | -1.83% | 1.46% | -0.075% | -2.76%
24 | COc1cccc(C(=O)Cn2nc3n(Cc4ccc(F)cc4)c(=O)c4ccccc4n3c2=O)c1 | 4.76% | 0.398% | 8.75% | 4.42% | 2.09%
25 | C=C1CC[C@@]2(OC1)O[C@H]1CC3[C@@H]4CC=C5C[C@H](O[C@H]6OC[C@@H](O)C(O)[C@@H]6O[C@@H]6O[C@@H](C)[C@H](O)[C@@H](O[C@@H]7O[C@H](CO)[C@@H](O)[C@H](O)[C@H]7O)[C@H]6O)C[C@@H](O)[C@]5(C)C4CC[C@]3(C)[C@H]1[C@@H]2C (some centres undefined) | -6.83% | 1.42% | -2.64% | -5.18% | -13.9%
26 | CC1CCC(NC(=O)C2(C)Cn3c(cc4occc43)C(=O)N2Cc2ccc(F)cc2)CC1 (centres undefined) | 1.06% | 0% | 6.85% | 1.96% | 2.77%
27 | C[C@@H]1CCC2C(C)(C)[C@H](O)[C@H](O)C[C@]2(C)[C@@]12Cc1c(O)cc3c(c1O2)CN(CCCC(=O)O)C3=O (some centres undefined) | -1.37% | -2.66% | 7.57% | -17.8% | -12.2%
28 | CCOC(=O)c1cc2n(n1)CC(C)(C(=O)NCCCOC)N(c1ccccc1C)C2=O (centres undefined) | 4.36% | 4.14% | 6.41% | 3.11% | 2.32%
29 | CC1=C2C3OC(=O)C(C)C3(O)CCC2(C)CCC1=O (centres undefined) | 0.806% | 0.789% | 6.3% | -12.8% | 4.11%
30 | O=C(O)CCc1cccc(O)c1O[C@@H]1O[C@H](CO)[C@@H](O)[C@H](O)[C@H]1O | 0.61% | 4.48% | 5.95% | -10.8% | 2.42%
31 | COc1ccc(C(=O)Cn2nc3n(CCC(C)C)c(=O)c4ccc(C(=O)NC(C)C)cc4n3c2=O)cc1 | 6.75% | 0% | -0.813% | 6.41% | 6.32%
32 | CC(C)CCNC(=O)CCn1ccc2cc(S(=O)(=O)N3CCCCC3)ccc21 | 6.19% | 5.54% | 7.97% | 5.86% | 3.87%
33 | CNCCN(C)Cc1cn[nH]c1-c1ccc(OC2CC(OCCC3CCOCC3)C2)cc1 (centres undefined) | -1.2% |  | -53% | 4.29% | 23.5%
34 | OC[C@H]1O[C@@H](Oc2cc(O)c3c(c2)O[C@@H](c2ccc(O)cc2)[C@H](O)C3)[C@H](O)[C@@H](O)[C@@H]1O | 5.87% | 7.64% | 11.3% | -6.08% | 6.27%
35 | COc1ccc(Cl)cc1N1C(=O)CSc2c(c3ccccc3n2C)C1C(=O)NCc1ccc(F)cc1 (centres undefined) | -1.35% | 0% | 6.3% | 4.38% | 3.38%
36 | COc1ccccc1CNC(=O)c1cc2n(n1)CC(C)(C(=O)NCc1ccccc1)N(C)C2=O (centres undefined) | 1.01% | 2.49% | -1.58% | 0.877% | -2.46%
37 | COc1cccc(CN2C(=O)c3ccc(-c4ccco4)n3CC2(C)C(=O)NC2CCCCCCC2)c1 (centres undefined) | -9.55% | -4.57% | 2.63% | -22.4% | -6.01%
38 | CC(C)CCNC(=O)c1cc2n(n1)CC(C)(C(=O)NCCC(C)C)N(C)C2=O (centres undefined) | 1.14% | 0% | 4% | -2.96% | 1.48%

Row | SMILES | activity change, negative = inhibition [1] | activity change, negative = inhibition [2] | activity change, negative = inhibition [3] | activity change, negative = inhibition [4] | activity change, negative = inhibition [5]
39 | COc1ccc(CNC(=O)C2=NO[C@@H]3CN(c4ccccn4)C[C@H]23)cc1OC | -16.5% | -4.79% | -3.05% | -19.3% | 8.04%
40 | CC(C)c1ccc(-c2cc3n(n2)CC(C)(C(=O)NC2CCCCC2)N(CCN(C)C)C3=O)cc1 (centres undefined) | 1.22% | 0.714% | 1.4% | 10.3% | 3.78%
41 | c1ccc(CN2CCc3c(sc4ncnc(N5CCOCC5)c34)C2)cc1 | -14.8% | -5.18% | -13.9% | -55.7% | -25.9%
42 | Cn1ccnc1-c1cn(Cc2ccccc2Cn2cccn2)nn1 | -2.87% | -1.38% | -6.19% | -6.81% | -6.06%
43 | CCOCCCNC(=O)C1c2c(n(C)c3ccccc23)SCC(=O)N1Cc1ccco1 (centres undefined) | 6.78% | 0% | 0.449% | 6.07% | 6.91%
44 | CCC(C)NC(=O)c1ccc2c(=O)n(CC(C)C)c3nn(Cc4c(F)cccc4Cl)c(=O)n3c2c1 (centres undefined) | 0.653% | 6.01% | 2.64% | 3.54% | 0.679%
45 | CN1CC(O)CN([S+](=O)([O-])c2cccs2)CC1=O (centres undefined) | 0.396% | 1.71% | 2.5% | 1.56% | 0.625%
46 | CCC1C(=O)OCC1Cc1cncn1C (centres undefined) | -7.94% and -11.9% | 2.25% and -0.352% | -1.63% and -4.91% | -6.85% and -5.14% | 6.68% and 4.25%
47 | COc1ncccc1Nc1cnc2ccc(N3CCOCC3)nn12 | -19.8% | -20.5% | -26.9% | -22.6% | -25.5%
48 | CC(=O)Nc1ccc(-c2nnc3n(CCc4ccccc4)c(=O)c4ccccc4n23)cc1 | -11% | -2.2% | -7.05% | -4.82% | -8.15%
49 | OC[C@@H]1CN(Cc2ccco2)C[C@H]1c1ccccn1 | -3.1% | 0.04% | -0.463% | 2.68% | 2.05%
50 | O=C(/C=C/c1ccc(O)c(O)c1)O[C@@H]1[C@@H](O)[C@H](OC2CCCCC2O)O[C@H](CO)[C@H]1O (some centres undefined) | -0.34% | -4.19% | -3.19% | -14.1% | 0.54%
51 | O=C(NC1CCCC1)C1c2ccccc2CC(=O)N1Cc1ccccc1 (centres undefined) | -2.27% | -1.48% | -0.828% | -6.17% | 2.19%
52 | CCCCN1C(=O)c2cc(C(=O)Nc3c(C)cccc3CC)nn2CC1(C)C(=O)NC1CCCC1 (centres undefined) | 2.98% | 0.609% | -4.92% | 1.96% | 2.78%
53 | COc1ccccc1CNC(=O)C1CN(C(C)C)C(=O)N1 (centres undefined) | -0.793% | -0.609% | 1.45% | -0.901% | 1.23%
54 | COc1ccccc1-c1cccc(C(=O)N2CCN(C(=O)c3ccc(F)cc3)CC2)c1 | -6.71% | -3.98% | -0.718% | -14.4% | 0.866%
55 | Cc1csc(NC(=O)c2ccc(COc3cccc(Cl)c3)o2)n1 | -4.46% | 4.08% | 11% | -15% | -2.14%
56 | NC(=O)c1ncn([C@@H]2O[C@H](CO)[C@@H](O)[C@H]2O)c1O | 7.43% | 11.5% | 8.24% | -3.99% | 4.06%
57 | CO[C@H]1C=CO[C@@]2(C)Oc3c(C)c(O)c4c(O)c(c5c(c4c3C2=O)NC2(CCN(CC(C)C)CC2)N=5)=NC(=O)C(C)=CC=C[C@H](C)[C@H](O)[C@@H](C)[C@@H](O)[C@@H](C)[C@H](OC(C)=O)[C@H]1C | -9.63% | 9.71% | -8.08% | -10.5% | -3.69%
